In PubChem BioAssay (NCATS):
Inconclusive means that the source gave no clear call. Such entries were picked first, then a sample of the others. For part of these data: Potencies of inconclusive entries are doubtful fits and often do not repeat. Active and inactive are the calls of the source. The call rests on the fitted dose curve; in most records, active means well fitted curve in the direction sought with a large enough effect; inconclusive means small, poorly fitted or top-dose-only effect, or another doubt; inactive means no such curve, though single readings can be large; an effect the other way counts as inactive or inconclusive.

Key:
[1] = P-glycoprotein substrates identified in KB-8-5-11 adenocarcinoma cell line, qHTS therapeutic library screen (AID 1346987); further: nearly all actives have a fitted effect of over 65% in size
Summary of the method: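 KB-8-5-11: colchicine-selected sub-line of KB-3-1 over-expressing P-gp; assay medium lacked colchicine. 72 h drug exposure at 37 degree C, CellTiter-Glo.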

[2] = Primary qHTS for inhibitors of nuclear receptor binding SET domain protein 2 (NSD2) in an isogenic RCH-ACV NSD2 p.E1099K mutant (9B) (AID 1645876); further: nearly all actives have a fitted effect of over 70% in size
[3] = system: HEK293; assay: Cytotoxic Profiling of Annotated Libraries Using Quantitative High-Throughput Screening (AID 1296008); settings: Five cell lines viability, CellTiter-Glo ATP luminescence, 48-72 h; max response: active compounds read low; further: nearly all actives have a fitted effect of over 60% in size
Summary of the method: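 Compounds were pin-transferred onto cells and incubated 48 or 72 hr at 37 degree Celsius, 95% humidity. CellTiter-Glo was added, plates sat 10 min at room temperature, then ATP-coupled luminescence was imaged as the viability read-out.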

[4] = system: Es-2; assay: Primary qHTS to identify gynecologic anti-cancer compounds using libraries of approved drugs and bioactive compounds (AID 1345084); settings: Gynecologic cancer cell panel viability, ATPlite luminescence, 48 h; series mostly up to 57.5 µM; further: nearly all actives have a fitted effect of over 55% in size
Summary of the method: (§1)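 48 h compound exposure at 37 C, 5% CO2; five-point qHTS. ATPlite luminescence readout of cell ATP.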

[5] = system: JEG-3; assay: as above; settings: Gynecologic cancer cell panel viability, ATPlite luminescence, 48 h; series mostly up to 57.5 µM
Summary of the method: as §1

[6] = system: Tov-21-G; assay: as above; settings: Gynecologic cancer cell panel viability, ATPlite luminescence, 48 h; series mostly up to 57.5 µM
Summary of the method: as §1
Potency means the concentration at half of the fitted maximal effect; tags describe the fitted curve by direction and shape.

Q: For `C=C(C(=O)O[C@H]1C/C(C)=C/CC/C(CO)=C/[C@H]2OC(=O)C(=C)[C@H]12)C(O)CO` (stereo partly specified), which Potency [1] is on record?
A: Its Potency is inconclusive: 20.2 µM [inhibitor, partial curve, poor fit].

Q: And the Potency [2]?
A: The Potency was active: 7.13 µM.

Q: What about the Potency [3] of the same molecule?
A: The Potency was inconclusive: 20.2 µM [inhibitor, single point].

Q: What about the Potency [4] of the same molecule?
A: The Potency was inconclusive: 28.2 µM [cytotoxic, single point].

Q: What about the Potency [5] of the same molecule?
A: The Potency was inconclusive: 22.4 µM [cytotoxic, single point].

Q: What about the Potency [6] of the same molecule?
A: The Potency was inconclusive: 12.6 µM [cytotoxic, single point].
